# Some of the results follow.
# Tested on: HSkMC (human skeletal muscle cells)
# Assay: cytotoxicity call (relative viability < 0.9)
# Settings: 10 µM
row,Compound,cytotoxicity call
1,COc1ccccc1-c1ccc2c(c1)O[C@@H](CN(C)C(=O)c1ccncc1)[C@@H](C)CN([C@H](C)CO)S2(=O)=O,inactive
2,C[C@H]1CN([C@@H](C)CO)C(=O)c2cccc(NC(=O)c3nc4ccccc4s3)c2O[C@@H]1CN(C)Cc1ccc(Cl)c(Cl)c1,inactive
3,C[C@@H]1CN([C@H](C)CO)C(=O)c2cc(NS(=O)(=O)c3ccc(Cl)cc3)ccc2O[C@H]1CN(C)Cc1ccc(Cl)c(Cl)c1,inactive
4,COCCc1nnc(CCOC)n1N,inactive
5,CNC[C@H]1Oc2ccc(NC(=O)CCN3CCOCC3)cc2CC(=O)N([C@@H](C)CO)C[C@@H]1C,inactive
6,C[C@H](CO)N1C[C@H](C)[C@@H](CN(C)C(=O)Nc2ccc(C(F)(F)F)cc2)Oc2c(NC(=O)Nc3ccccc3)cccc2C1=O,inactive
7,C[C@H](CO)N1C[C@H](C)[C@H](CN(C)C(=O)Nc2ccccc2C(F)(F)F)OCc2ccccc2-c2ccccc2C1=O,inactive
8,C[C@@]1(C(=O)O)CCCC[C@@H]1N,inactive
9,C[C@@H]1CN([C@@H](C)CO)C(=O)c2cc(Br)cnc2O[C@H]1CN(C)C(=O)Nc1ccc2c(c1)OCO2,inactive
10,COc1ccccc1C#Cc1ccc2c(c1)O[C@@H](CN(C)Cc1cccnc1)[C@H](C)CN([C@@H](C)CO)S2(=O)=O,active
11,C/C=C/c1ccc2c(c1)O[C@H](CN(C)S(=O)(=O)c1ccccc1OC)[C@H](C)CN([C@H](C)CO)S2(=O)=O,inactive
12,C=CC(=O)NCCCCNC(=O)C=C,inactive
13,C[C@@](N)(C(=O)O)c1ccc(-c2nn[nH]n2)cc1,inactive
14,COc1ccc(S(=O)(=O)N(C)C[C@H]2Oc3cc(C#CC4CC4)ccc3S(=O)(=O)N([C@@H](C)CO)C[C@H]2C)cc1,inactive
15,C[C@@H]1CCCCO[C@H](CN(C)Cc2ccc(Cl)c(Cl)c2)[C@H](C)CN([C@@H](C)CO)C(=O)c2cc(NC(=O)Nc3ccc(C(F)(F)F)cc3)ccc2O1,inactive
16,O=c1cc(Oc2ccc(O)cc2)oc2cc(O[C@@H]3O[C@H](CO[C@@H]4O[C@H](CO)[C@@H](O)[C@H](O)[C@H]4O)[C@@H](O)[C@H](O)[C@H]3O)cc(O)c12,inactive

row,Compound,cytotoxicity call
1,Cc1[nH]c(N)nc(=O)c1CC(=O)O,inactive
2,C[C@H](CO)N1C[C@H](C)[C@@H](CN(C)S(=O)(=O)c2ccc(F)cc2)OCCCC[C@H](C)Oc2ccc(NC(=O)c3ccccc3)cc2C1=O,inactive
3,C[C@H]1CN([C@@H](C)CO)C(=O)Cc2cc(NS(=O)(=O)c3cn(C)cn3)ccc2O[C@H]1CN(C)S(=O)(=O)c1cccs1,inactive
4,COCCNC(=O)C[C@H]1CC[C@@H]2[C@H](COC[C@@H](O)CN2C(=O)Nc2ccc3c(c2)OCO3)O1,inactive
5,COc1ccc(-c2cnc3c(c2)C(=O)N([C@H](C)CO)C[C@@H](C)[C@H](CN(C)C(=O)Cc2ccncc2)O3)cc1,inactive
6,CC(O)(CN)CCc1ccccc1 (configuration not stated),inactive
7,C[C@@H]1CN([C@H](C)CO)C(=O)c2cc(NC(=O)Nc3ccc(C(F)(F)F)cc3)ccc2O[C@@H]1CN(C)Cc1ccc(Oc2ccccc2)cc1,active
8,CCc1nc2c(C)cc(N3CCN(CC(=O)N4CC(O)C4)CC3)cn2c1N(C)c1nc(-c2ccc(F)cc2)c(C#N)s1,inactive
9,CC(=O)N1CCN(C(=O)Cc2ccc(S(C)(=O)=O)cc2)C[C@@H](O)C1,inactive
10,O=C(C[C@H]1C=C[C@H](NC(=O)CN2CCOCC2)[C@H](CO)O1)NCCc1ccncc1,inactive
11,Cc1ccc(S(=O)(=O)N(C)C[C@@H]2Oc3ccc(NS(=O)(=O)c4cn(C)cn4)cc3CC(=O)N([C@H](C)CO)C[C@@H]2C)cc1,inactive
12,C[C@H]1CCCCO[C@H](CN(C)S(=O)(=O)c2ccc(Cl)cc2)[C@@H](C)CN([C@@H](C)CO)C(=O)c2cc(NC(=O)Nc3cccc4ccccc34)ccc2O1,inactive
13,COCCOC(=O)N1C(=O)[C@@]2(c3cc(C#Cc4ccc(OC)cc4)ccc31)[C@H](c1ccc(O)cc1)N1[C@H](c3ccccc3)[C@H](c3ccccc3)OC(=O)[C@H]1[C@@H]2C(=O)N1CCCCCCC1,inactive
14,O=c1c(-c2ccc(O)cc2)coc2c(C3OC(CO)C(O)C(O)C3O)c(O)ccc12 (configuration not stated),inactive
15,O=C(C[C@H]1C[C@H]2c3cc(NS(=O)(=O)c4ccc(F)cc4)ccc3O[C@H]2[C@H](CO)O1)N1CCOCC1,inactive
16,Cc1ccc(S(=O)(=O)N(C)C[C@@H]2OCCCC[C@@H](C)Oc3ccc(NC(=O)Nc4c(C)noc4C)cc3C(=O)N([C@H](C)CO)C[C@H]2C)cc1,inactive

# Source: the antibiotic and cytotoxicity screens of Wong et al. (2023)
